Certain results were filed several times, with different values. This is not the full list of results. The source may hold further records. Results that share an entry repeat one measurement across runs, samples, wells, individuals or studies. Additions like (4×) stand for listed records that agree.
System: 324938-238-R-J1-PDC complex spheroid growth, % test/control
Assay: Anticancer human tumor 324938-238-R-J1-PDC patient-derived bladder carcinoma cell line growth inhibition [AhR]
Details: for viability, T/C: stronger effect = lower value; for IC50: compound alone
Description: Multicellular complex tumor spheroid response to aryl hydrocarbon receptor antagonists in combination with a variety of drugs and investigational agents in selected tumor cell lines
The current study was undertaken to assess response to aryl hydrocarbon receptor antagonists in combination with standard-of-care drugs and investigational agents in solid tumor complex spheroid models. Complex spheroids include a stromal component modeled by human endothelial cells (HUVEC) and fibroblasts modeled by human mesenchymal stem cells (MSCs). The concentration ranges selected for each drug and investigational agent were based upon clinically achievable concentrations if the clinical Cmax of the agent was known.
Compounds. The drugs and investigational agents: BAY 2416964 (NSC825713), GNF351 (NSC835774), CH-223191 (NSC835775), CPI-455 (NSC825282), aza-TdCyd (NSC777586), decitabine (NSC127716), belinostat (NSC758774), entinostat (NSC756642), pevonedistat (NSC761192), tazemetostat (NSC777109), talazoparib (NSC765396), olaparib (NSC753686), selinexor (NSC780203), nedisertib (M3814, NSC802822), bortezomib (NSC756655), venetoclax (NSC766270), doxorubicin (NSC123127), elimusertib (BAY189344, NSC800525), ceralasertib (AZD6738, NSC777638), TAK-243 (NSC785004), alisertib (NSC759677), etoposide (NSC141540), topotecan (NSC609699), eribulin (NSC707389), gemcitabine (NSC613327), carboplatin (NSC241240), cisplatin (NSC119875), and SN-38 (NSC673596) were obtained from the National Cancer Institute (NCI) Developmental Therapeutics Program Chemical Repository (32). The FDA-approved anticancer drug set is available from the Developmental Therapeutics Program at https://dtp.cancer.gov/organization/dscb/obtaining/available plates.htm. […] The stock solutions were prepared in dimethyl sulfoxide (DMSO, Sigma-Aldrich, St. Louis, MO, cat. D2650), except for the platinum compounds which were prepared in saline (Quality Biological, Gaithersburg, MD, cat. 114-055-101), at 800-fold the tested concentration and stored at -70 degrees C prior to their use. All drugs and investigational agents were tested over a range starting from a high concentration at or near the clinical Cmax and decreasing in half-log increments. If the clinical Cmax for an agent had not been determined, the highest concentration tested was 10 microM (Table 1).
Cell Culture. All cells were maintained in an incubator at 37 degrees C and 5% CO2 with 95% humidity. The PDC lines were cultured according to standard operating procedures established by the NCI PDMR (https://pdmr.cancer.gov). Briefly, all PDCs were thawed and cultured in Matrigel-coated flasks prepared with a working solution of 1X Ham's F-12 nutrient mix, without supplementation (Invitrogen, Waltham, MA, cat. 11765054), 100 U/mL penicillin-streptomycin (Invitrogen, cat. 15140122), and 2.5% Matrigel (Corning Inc., Corning, NY, cat. 354248) for the first three passages. All PDCs were cultured in complete DMEM/F-12 media containing advanced DMEM/F-12 (Invitrogen, cat. 12634028), 4.9% defined fetal bovine serum, heat inactivated (HyClone Laboratories Inc., Logan, UT, cat. SH30070.03HI), 389 ng/mL hydrocortisone (Sigma-Aldrich, cat. H4001), 9.7 ng/mL human EGF recombinant protein (Invitrogen, cat. PHG0313), 23.4 microg/mL adenine (Sigma-Aldrich, cat. A2786), 97.3 U/mL penicillin-streptomycin (Invitrogen, cat. 15140122), 1.9 mM L-glutamine (Invitrogen, cat. 25030081), and 9.7 microM Y-27632 dihydrochloride (Tocris Bioscience, Bristol, United Kingdom, cat. 1254). The PDCs were cultured in complete DMEM/F12 media without 10 microM Y-27632 dihydrochloride for at least two passages prior to the screen. The established cell lines NCI-H1341 and […] were cultured in DMEM/F-12, HEPES (Invitrogen, cat. 11330032), 5% defined fetal bovine serum (HyClone Laboratories Inc., cat. SH30070.03), ITS premix universal culture supplement [insulin (5 microg/mL), transferrin (5 microg/mL), and selenious acid (5 ng/mL)] […]
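Note: spheroids exposed to agents for seven days before viability read.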

SMILES: Cc1ccccc1N=Nc1ccc(NC(=O)c2ccnn2C)c(C)c1
- viability, T/C (compound alone 0.1 µM): 87.3, 83.6, 83.4, 101 (2×), 95.7, 96.4, 111, 97.1, 108, 91.5, 95.6, 90.3, 93.7, 102, 96.9, 104, 106, 99.4, 98.3%
- viability, T/C (compound alone 0.316 µM): 88.8, 86.5, 83, 102, 83.7, 70.3, 66, 92.8, 88.4, 82 (2×), 93.9, 92.3, 82.4, 105, 89.2, 93.6, 86.4, 81.6, 99.6%
- viability, T/C (compound alone 1 µM): 92.9, 94.2, 81.5, 91.7, 78.4, 81.4, 89.1, 94.5, 88.7, 88.6, 107, 83, 88.1 (2×), 92.4, 78.6, 94.7, 81, 81.2, 95.9%
- viability, T/C (compound alone 3.16 µM): 76.2, 77.2, 65.2, 95.9, 69.6, 77.5, 85.4, 83.4, 85, 79.2, 84.8, 75.4, 79, 79.4, 70.7, 82.8, 74.8, 65.6, 74.7, 86.9%

SMILES: Cc1cncc(-c2nc(NCCc3c[nH]c4ccccc34)c3ncn(C(C)C)c3n2)c1
- viability, T/C (compound alone 0.1 µM): 126, 105, 104 (2×), 112, 87.8, 84.7, 92.4, 103, 92.8, 111, 137, 114, 94.5, 113, 97.8, 118, 79.1, 91.5, 95.6%
- viability, T/C (compound alone 0.316 µM): 97.2, 78.1, 93, 86.6, 76.1, 76.2, 96 (2×), 124, 83.6, 130, 108 (2×), 101, 107, 85.2, 80.7, 125, 88.7, 118%
- viability, T/C (compound alone 1 µM): 99.1, 94.5, 87.6, 108 (2×), 98.7, 94.1, 106, 96.5, 94.4, 109, 113, 86.1, 84.9, 118 (2×), 99.8, 101, 91.1, 81.5%
- viability, T/C (compound alone 3.16 µM): 77.9, 77, 105 (2×), 70.4, 106 (2×), 67.4, 87.6, 84.2, 90, 75.1, 97.2, 68.7, 91.9, 116, 113, 84, 83, 85.8%
- viability, T/C (compound alone 10 µM): 1.93, 4.73, 5.11, 7.15, 41.5, 7.09, 4.86, 2.94, 4.38, 5.78, 17.5, 15.6, 16.9, 7.93, 7.43, 21, 11, 7.33, 6.17, 8.51%

SMILES: CC1COCCN1c1cc(-c2ccnn2C)c2ccnc(-c3ccn[nH]3)c2n1 (stereo not given)
- IC50: 73 nM, > 1 µM, 288 nM

SMILES: COc1cccc2c1C(=O)c1c(O)c3c(c(O)c1C2=O)CC(O)(C(=O)CO)CC3OC1CC(N)C(O)C(C)O1 (stereo not given)
- IC50: < 31.6 nM (2×) and 344 nM

SMILES: CCc1c2c(nc3ccc(O)cc13)-c1cc3c(c(=O)n1C2)COC(=O)[C@]3(O)CC
- IC50: < 0.949 nM, > 300 nM, 3.26 nM

SMILES: COc1cc(C2c3cc4c(cc3C(OC3OC5COC(C)OC5C(O)C3O)C3COC(=O)C23)OCO4)cc(OC)c1O (stereo not given)
- IC50: 344 nM, > 10 µM, 399 nM

SMILES: COc1cc(Nc2ncc3c(n2)-c2ccc(Cl)cc2C(c2c(F)cccc2OC)=NC3)ccc1C(=O)O
- IC50: 83.9 nM, > 10 µM, 142 nM

SMILES: CC(CO)NC(=O)c1cc(-c2ccc(Cl)cc2)nn(-c2cnn(C)c2)c1=O (stereo not given)
- viability, T/C (compound alone 0.1 µM): 104 (3×), 93.6, 102, 98.9, 96.8, 92.9, 113 (2×), 89.5, 98.8, 86.5, 91.1, 84.3, 97.4, 96.3, 94.8, 108, 91.6%
- viability, T/C (compound alone 3.16 µM): 74.8, 69.1, 73.3, 63.5, 69, 85.6, 72.4, 75.7, 58.3, 78.5, 73.6, 67.5, 65.7, 68.9, 64.3, 73.4, 76.5, 75.1, 75.4%

SMILES: Nc1ccn(C2OC(CO)C(O)C2(F)F)c(=O)n1 (stereo not given)
- IC50: < 31.6 nM, > 10 µM, 36.1 nM

SMILES: Nc1ccccc1NC(=O)c1ccc(CNC(=O)OCc2cccnc2)cc1
- viability, T/C (compound alone 10 µM): 21.3%, 4.9%, 34.6%

SMILES: O=C(C=Cc1cccc(S(=O)(=O)Nc2ccccc2)c1)NO
- viability, T/C (compound alone 10 µM): 1.47%, 3.01%, 31.2%

SMILES: O=C(C=Cn1cnc(-c2cc(C(F)(F)F)cc(C(F)(F)F)c2)n1)NNc1cnccn1
- viability, T/C (compound alone 3 µM): 9.1%, 34.5%, 8.07%

From PubChem BioAssay AID1918995 (Molecular Pharmacology Branch, DTP, NCI, 2023)
